This is one part of the list.
B1: chr12:110381781:110381892:-|CDS|ENSG00000196510|unk|FALSE|unique (ssRNA)
RNA: GGGAGUUCUACAGUCCGACGAUCAAGGCCAUUCAGCUGAACAGUAAUAGUGUUCAAGCUCUGCUACUUAAGGGAGCAGCACUUAGGAACAUGGGCAGAGUCCAAGAAGCAAUAAUCCACUUUCGGGAGGCCAUACGGCUCGCACAACAGAGGAUUGAGCAUCA
B2: chrX:8795077:8795420:-|CDS|ENSG00000183304|control|control|control (ssRNA)
RNA: GGGAGUUCUACAGUCCGACGAUCAGCAGCAGAAGCCGCAGCAGCAGCAGAAGCCGCAGCAGCAGCAGCAGAAGUAAUAGUAGUAGAAGACGAAGAGGAGGAAGAGAAGGAGGAGGAGGAGGAGAAAGAAGAGGAGGAAGAAGACAACAGAGGAUUGAGCAUCA
B3: ENSG00000132640:stop:overlap|stop_codon|ENSG00000132640|stop_codon|NA|stop_codon (ssRNA)
RNA: GGGAGUUCUACAGUCCGACGAUCACCUUAUCCCGGCCCCAAACUGGCAGGGUCUUUAUCCCACCAUUAGAGAGAGUAUGUUUUAGCUGUUGGGAGCUCUGUGUUCCAUGCGAUGUUUUACGGAGAACUUGCAGAGGACAAAGACAACAGAGGAUUGAGCAUCA
B4: chr10:11920118:11920232:-|3pUTR|ENSG00000151461|unk|total|mutant (ssRNA)
RNA: GGGAGUUCUACAGUCCGACGAUCGCCGUAUAUUCCGUCGGAGAGCACAUCUGUAUGCGACAACUUGAUUACAUCUUUUUUUCCCGCUAUUUUGCAUUUUUUCUUUUACCAUGUUUCAGUUUCUGCAUGCCGAUUUAAAUAAAACAACAGAGGAUUGAGCAUCA
B5: chr3:66417149:66417250:-|CDS|ENSG00000144749|msi1|FALSE|unique (ssRNA)
RNA: GGGAGUUCUACAGUCCGACGAUCCAACAAGAUUCGCAGCGUGGAGGGGAGCCAGCUGAAGGCCUACCUUUCCUUAGAAGUGUUAGAUCUGAGUUUGAACAACAUCACGGAAGUGCGGAACACCUGCUUUCCACACGGACCGCCCAACAGAGGAUUGAGCAUCA
B6: chr13:36848462:36848578:-|3pUTR|ENSG00000120693|unk|FALSE|unique (ssRNA)
RNA: GGGAGUUCUACAGUCCGACGAUCAAAUACAUAGAAUGUAUACUGUUCUUAUUUUUUUUAAUCACCGUUUGUUUUGUGCUUUCUAGUUAACCUGAUGCCAGUACAGUGCAAUUGGAAAAGCAGGACUUUGGUGCCUGUGCUAUACAACAGAGGAUUGAGCAUCA
B7: chr13:27440139:27440263:-|CDS|ENSG00000122033|unk|FALSE|unique (ssRNA)
RNA: GGGAGUUCUACAGUCCGACGAUCAAUGAAGGAAAAAAGACAAAAAAGAAUAAAACAGCUUUUAGUAACGUUGGAAGAAAAAUUAGUCAGCGAGUUAUUCACUUAUUUGAUGAGAAGGGCAAUGAUUUGGGAAACAUGCACCGACAACAGAGGAUUGAGCAUCA
B8: chr11:111726697:111726798:+|3pUTR|ENSG00000170145|unk|FALSE|unique (ssRNA)
RNA: GGGAGUUCUACAGUCCGACGAUCGGAAGCUUCCAAGCAGUUUUCUCUUCAUCACUACUAACAAACAAAACACUAAGAAGGCUUAGUAUCGCUCUUUUUCUGCGGGGCUACUCUGAAGUACUGACUUGCUUUCCAGUCUGAUUCCAACAGAGGAUUGAGCAUCA
B9: chr10:131092390:131093161:-|three_prime_utr|ENSG00000176769|control|control|control (ssRNA)
RNA: GGGAGUUCUACAGUCCGACGAUCGUGAAUUACUUCGUUUCUCCAGGAUUCCCGCAGUGUUGAGGAAUUCCUUACUCUGUCCCUAGGUCUCAGUCUCGUUUCUGAGUAGCAGCAAUAGGGUUUUCAUCAUUCAUCAUAGUGACACAACAGAGGAUUGAGCAUCA
B10: ENSG00000198589:be:win_551|CDS|ENSG00000198589|bound_else_gene|NA|bound_elsewhere_windowed (ssRNA)
RNA: GGGAGUUCUACAGUCCGACGAUCCUCCACAUGCUGGGAAGUUGCUGUCUGUGUUAAAGCAUAUGCCUCAGAAGUAUGGUCCUGAUGCCUUUUUUAACUUUCCAGGAAAGAGUGCUGCAGCUAUUGCAUUACCUCCUAUAGCCACAACAGAGGAUUGAGCAUCA
B11: chr1:93888438:93888539:-|3pUTR|ENSG00000023909|msi1|total|mutant (ssRNA)
RNA: GGGAGUUCUACAGUCCGACGAUCAGAUAUUUUUCCUGUCAUUGAUGAGAUAUAUCAGAGUAACUGGAGCCGCUGGGAUUUACCCGCCGUGUAAAUAAAAUUCACUCUUCAAUACAUGAAUGGAAACUUAAAUUUUUUUUUAUGCAACAGAGGAUUGAGCAUCA
B12: chr8:41262982:41263083:-|3pUTR|ENSG00000104332|msi1|FALSE|unique (ssRNA)
RNA: GGGAGUUCUACAGUCCGACGAUCCAACCGGGCCCUCUCUCUGCGGCAGAGUCCUUAGUGGAGGGGUUUACCUGGAACAUUAGUAGUUACCACAGAAUACGGAAGAGCAGGUGACUGUGCUGUGCAGCUCUCUAAAUGGGAAUUCAACAGAGGAUUGAGCAUCA
B13: chr4:113382420:113382521:+|3pUTR|ENSG00000145362|msi1|FALSE|bound_elsewhere (ssRNA)
RNA: GGGAGUUCUACAGUCCGACGAUCUCUUCAGGUCUUUAGAUCUUGGACAAGUUGGCAGGGUAUUUUAAAAGCUAUAACUACUGUAGUUUUCCAGUUUUCAUUGCUGCUUUAGCAAACCACGCUGUCUUACAGUGGUACUUUCUUCAACAGAGGAUUGAGCAUCA
B14: chr10:87814449:87814585:-|CDS|ENSG00000138138|unk|total|mutant (ssRNA)
RNA: GGGAGUUCUACAGUCCGACGAUCUUUAAUUUUCCGUUUGACAAUAUUUGGUGCAGUGACAUACUUUACUAUCAAAUGGAUGGCCGAUGCAAUUGAUCCAACCAGAAAGCAAAAAGCCGAAGCUCAGAAACAGGUAUGAUUGAACAACAGAGGAUUGAGCAUCA
B15: chr8:22006149:22006250:+|3pUTR|ENSG00000130227|msi1|FALSE|unique (ssRNA)
RNA: GGGAGUUCUACAGUCCGACGAUCGAAUGUAUGAACUGGAGGAAGUUACUACAGUGGAAGGGUUCUUAAUAACAAGGUCUACCUAGCAUGAAGUAUUUAACAUUCUCCCAUCCCUUAAAAAAUAUACAUUUUUAUAAAAUGAAACAACAGAGGAUUGAGCAUCA
B16: chr3:196828865:196828966:+|3pUTR|ENSG00000180370|msi1|total|mutant (ssRNA)
RNA: GGGAGUUCUACAGUCCGACGAUCUGCUCCUUUUGAGUUGCUUUUGCGUUUCUCAUGCCCCGGCAAGUGUAACCGAAAUUAUGCCGCUCCUUAUGUUGGCAAAGGAGCUCUAUACCGUUUCACUUUGUAUAAAAGUCCGGACCACAACAGAGGAUUGAGCAUCA
B17: ENSG00000198589:be:win_201|CDS|ENSG00000198589|bound_else_gene|NA|bound_elsewhere_windowed (ssRNA)
RNA: GGGAGUUCUACAGUCCGACGAUCAACUGUCUUUAACCUGUUGGUAGGAGGACAGUUUGAUCUGGAAAUGAAUUUCAUUAUCCAAGAAGGUGAGAGUAUUAACUGCAUGGUGGACCUACUGGAAAAAUGUGACAUUACGUGCCACAACAGAGGAUUGAGCAUCA
B18: chr8:122953881:122953982:+|CDS|ENSG00000178764|msi1|total|mutant (ssRNA)
RNA: GGGAGUUCUACAGUCCGACGAUCGAGUCGAGCGUUGUGGAUUACGUGGAGGUGACGGUCGGGGAGGAGGAUGCGAUCUCAGACCGAUCAGACCGCUGGAGUCAGGCUGCGGCAGAAGGUGUGUCGGAACUGGCUGAAUCAGACCAACAGAGGAUUGAGCAUCA
B19: chr15:65118290:65118391:-|3pUTR|ENSG00000090470|msi1|FALSE|unique (ssRNA)
RNA: GGGAGUUCUACAGUCCGACGAUCACUUCCUUGUGUGUUGAUGGGUAAGUACACUCAAACACUGAAUACAGGUGUGUGAUGGGUAGAUUUCACAGCCCUUCUACUAAUAGUGAGUGUGAAGGCAAGCUUGAUGCAAAACCUCCUCAACAGAGGAUUGAGCAUCA
B20: chr8:118923556:118924373:-|three_prime_utr|ENSG00000164761|control|control|control (ssRNA)
RNA: GGGAGUUCUACAGUCCGACGAUCACUAUAUUUUCCCUUAUUACUGCUUGCAGUAAUUCAACUGGAAAUUAAAAAAAAAAAACUAGACUCCAUUGUGCCUUACUAAAUAUGGGAAUGUCUAACUUAAAUAGCUUUGAGAUUUCACAACAGAGGAUUGAGCAUCA
B21: chr22:21763623:21763656:-|3pUTR|ENSG00000100030|msi1_unk|total|mutant (ssRNA)
RNA: GGGAGUUCUACAGUCCGACGAUCGUGCUUCCGUCUCCGGAAUCCUUGGGGAGCACUUGUCCACGUCUUUUCUCAUAUCAUGGCCGUCACUAACAUAUAUAAGGUAUGUGCUAUUGGCCCAGCUUUCCGAAAAUGCAGUCAUUUCAACAGAGGAUUGAGCAUCA
B22: chr9:130903550:130903651:-|3pUTR|ENSG00000130720|msi1|FALSE|unique (ssRNA)
RNA: GGGAGUUCUACAGUCCGACGAUCAAAUACCCGGCAUUAUGGGGACAGAGAGCAGGGGGCAGACAGCACCCCUGGAGUCCUCCUAGCAGAUCGUGGGGAACGUCAGGUCUCUCUGAGGUCAGGUCUGAGGCCAGUAUCCUCCAGCAACAGAGGAUUGAGCAUCA

target: MSI1 full-length (mouse, UniProt Q61474 1-362); assay: nsRBNS (natural sequence RNA bind-n-seq); RBNS binding buffer (assumed for nsRBNS): 25 mM Tris pH 7.5, 150 mM KCl, 3 mM MgCl2, 0.01% Triton X-100, 500 ug/ml BSA, 20 U/ml SUPERase-In, 4 C; UNK is unkempt and MSI1 is Musashi-1; names of the RNAs are library labels; protein concentration not given here; high values mean tight binding
Chain of UniProt Q61474 (Q61474 whole entry): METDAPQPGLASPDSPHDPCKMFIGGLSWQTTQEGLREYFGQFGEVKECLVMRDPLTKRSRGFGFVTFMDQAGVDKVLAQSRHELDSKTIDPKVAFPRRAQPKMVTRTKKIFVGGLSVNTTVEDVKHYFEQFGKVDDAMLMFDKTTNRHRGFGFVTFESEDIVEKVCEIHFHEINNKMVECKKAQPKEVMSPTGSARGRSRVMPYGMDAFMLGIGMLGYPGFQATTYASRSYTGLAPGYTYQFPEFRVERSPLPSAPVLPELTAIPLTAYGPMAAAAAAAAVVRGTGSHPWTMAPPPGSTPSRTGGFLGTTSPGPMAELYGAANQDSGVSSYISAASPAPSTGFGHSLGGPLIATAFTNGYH

Compared with B1, B2 is higher in binding signal: 0.626 enrichment R for the first, 1.8 enrichment R for the second.

Going from B3 to B4, the binding signal falls from 0.771 enrichment R to 0.709 enrichment R.

Going from B5 to B6, the binding signal rises from 0.514 enrichment R to 3.51 enrichment R.

Compared with B7, B8 is lower in binding signal: 2.36 enrichment R for the first, 0.426 enrichment R for the second.

Compared with B9, B10 is higher in binding signal: 0.406 enrichment R for the first, 0.435 enrichment R for the second.

Compared with B11, B12 is higher in binding signal: 0.484 enrichment R for the first, 1.1 enrichment R for the second.

First: B13
Second: B14
The binding signal of the first is higher: 0.387 enrichment R for the first, 0.255 enrichment R for the second.

Compared with B15, B16 is lower in binding signal: 0.689 enrichment R for the first, 0.459 enrichment R for the second.

Going from B17 to B18, the binding signal rises from 0.245 enrichment R to 0.588 enrichment R.

First: B19
Second: B20
The binding signal of the first is lower: 0.361 enrichment R for the first, 0.729 enrichment R for the second.

Compared with B21, B22 is lower in binding signal: 0.528 enrichment R for the first, 0.492 enrichment R for the second.

From article PMC12136788
